To fix the notation:
B1: PhoQ; a variant is named by its letters at X, in order, P23837 (parent)
chain: MKKLLRLFFPLSLRVRFLLATAAVVLVLSLAYGMVALIGYSVSFDKTTFRLLRGESNLFYTLAKWENNKLHVELPENIDKQSPTMTLIYDENGQLLWAQRDVPWLMKMIQPDWLKSNGFHEIEADVNDTSLLLSGDHSIQQQLQEVREDDDDAEMTHSVAVNVYPATSRMPKLTIVVVDTIPVELKSSYMVWSWFIYVLSANLLLVIPLLWVAAWWSLRPIEALAKEVRELEEHNRELLNPATTRELTSLVRNLNRLLKSERERYDKYRTTLTDLTHSLKTPLXXLQXXLRSLRSEKMSVSDAEPVMLEQISRISQQIGYYLHRASMRGGTLLSRELHPVAPLLDNLTSALNKVYQRKGVNISLDISPEISFVGEQNDFVEVMGNVLDNACKYCLEFVEISARQTDEHLYIVVEDDGPGIPLSKREVIFDRGQRVDTLRPGQGVGLAVAREITEQYEGKIVAGESMLGGARMEVIFGRQHSAPKDE

The other results are listed elsewhere or left out. Where only a bound is given, the exact number is not on record here.

This assay covers variants of B1. The experiment in a line: enrichment ratio after two sorts for PhoP signalling (ratio (wild type AVST 3.29)); higher = more functional. The note with it: with PhoP (E. coli).
In the case of QMDV, the enrichment ratio is at most 0.25.

As for EEYC, the enrichment ratio is at most 0.25. For the variant AIIG, the enrichment ratio is 3.91.

For the variant SSEA, the enrichment ratio was at most 0.25.

Regarding LFNM, the enrichment ratio was at most 0.25. In the case of IDDV it was at most 0.25; in that of NHMG, at most 0.25. Regarding PPFG, the enrichment ratio was at most 0.25. In the case of TGAT, the enrichment ratio came to 18.1. In the case of KMPF it was at most 0.25; in that of TSPQ, at most 0.25.

Take KQII: the enrichment ratio was at most 0.25. In the case of SDRW it was at most 0.25; in that of WMGE, at most 0.25.

On to WYIA, for which the enrichment ratio was at most 0.25. In the case of THHI it was 0.474; in that of VGVV, 0.498; in that of RPMS, at most 0.25. In the case of IMPI it was at most 0.25; in that of MYFN, at most 0.25. In the case of FLDI it was at most 0.25; in that of WDCS, at most 0.25.

Take YRVQ: the enrichment ratio is at most 0.25.

For the variant LHFL, the enrichment ratio was at most 0.25. In the case of IQYN it was at most 0.25. Consider DRIN, for which the enrichment ratio is at most 0.25. As for GMLI, the enrichment ratio was determined as 9.73. For the variant TLTH, the enrichment ratio was 1.24. In the case of VIPG it was at most 0.25; in that of HIQY, at most 0.25; in that of RENH, at most 0.25. For the variant NRLQ, the enrichment ratio is at most 0.25.

For the variant THRD, the enrichment ratio is at most 0.25.

For the variant NIHI, the enrichment ratio was at most 0.25. In the case of YFGI it was at most 0.25; in that of DSMG, at most 0.25. In the case of VSDP it was at most 0.25; in that of IQSV, 0.309; in that of GGVD, at most 0.25. In the case of GFIF it was at most 0.25; in that of PNVH, at most 0.25. Turning to FNCA, the enrichment ratio was at most 0.25. In the case of AITV it was 6.12. In the case of FYDN it was at most 0.25; in that of SRCQ, 1.15. For YRWI, the enrichment ratio is at most 0.25. Consider PQEH, for which the enrichment ratio was at most 0.25. In the case of MQNM, the enrichment ratio is at most 0.25. In the case of VWRE it was at most 0.25; in that of TRYS, at most 0.25; in that of RAAS, at most 0.25. In the case of FSME it was 0.924; in that of TVLA, 9; in that of SQHI, at most 0.25. Turning to HMCS, the enrichment ratio was at most 0.25. In the case of ESLP, the enrichment ratio was at most 0.25. On to MPHT, for which the enrichment ratio was at most 0.25. In the case of ITGP it was at most 0.25; in that of FVSH, at most 0.25. As to TTPD, the enrichment ratio is at most 0.25. In the case of KNLY it was at most 0.25. For PDDK, the enrichment ratio is at most 0.25. As to SHCW, the enrichment ratio was at most 0.25. For PDQT, the enrichment ratio was at most 0.25. For GLDW, the enrichment ratio is at most 0.25. In the case of SSGA it was 3.11. For the variant EMYW, the enrichment ratio is at most 0.25. On to YNYF, for which the enrichment ratio was at most 0.25.

Turning to PVCR, the enrichment ratio was at most 0.25. Consider PFIS, for which the enrichment ratio is at most 0.25. In the case of LLPP it was at most 0.25; in that of HWGY, at most 0.25; in that of HVPY, at most 0.25. As to PVYY, the enrichment ratio was at most 0.25. In the case of LPTM it was at most 0.25. In the case of HGRY it was at most 0.25; in that of NWWV, at most 0.25. In the case of FQLF it was 6.28; in that of PRWY, at most 0.25. Take ELWT: the enrichment ratio is at most 0.25. As to NKRC, the enrichment ratio is at most 0.25.

For MCVW, the enrichment ratio is at most 0.25. In the case of TARI it was 1.12; in that of AKWV, at most 0.25.

Consider KPSL, for which the enrichment ratio was at most 0.25.

Consider SDSD, for which the enrichment ratio is at most 0.25. Consider NTWI, for which the enrichment ratio was at most 0.25. In the case of FYCK it was at most 0.25; in that of HHNH, at most 0.25; in that of WTID, at most 0.25. As for HVIY, the enrichment ratio is at most 0.25. In the case of STAV, the enrichment ratio turned out to be 5.94. In the case of TPAW it was at most 0.25. With WKLK, the enrichment ratio was at most 0.25. PFPW: the enrichment ratio was at most 0.25. Take WERM: the enrichment ratio was at most 0.25.

For VIGA, the enrichment ratio was at most 0.25. In the case of SSMV it was 18.9; in that of EMLG, at most 0.25; in that of ANAA, 8.15.

As for YGCQ, the enrichment ratio is at most 0.25.

Regarding EPFG, the enrichment ratio was at most 0.25.

In the case of TTPL, the enrichment ratio turned out to be 0.341. In the case of GNFC it was at most 0.25; in that of DICI, at most 0.25; in that of GDGQ, at most 0.25. In the case of WMNY it was at most 0.25. In the case of PKWW it was at most 0.25.

As to DKAC, the enrichment ratio was at most 0.25. Take SEYC: the enrichment ratio came out at 4. In the case of YDRE it was at most 0.25; in that of RHCL, at most 0.25; in that of EYDA, at most 0.25. On to DWLN, for which the enrichment ratio is at most 0.25. QFLY: the enrichment ratio is at most 0.25. As to MHMH, the enrichment ratio was at most 0.25. For the variant VGCS, the enrichment ratio was at most 0.25.

As to SAQR, the enrichment ratio was at most 0.25.

As to PPAV, the enrichment ratio is at most 0.25. In the case of HNYI it was at most 0.25; in that of RFLN, at most 0.25; in that of HNEK, at most 0.25. As to DGVM, the enrichment ratio was at most 0.25. For the variant TWGQ, the enrichment ratio was at most 0.25. In the case of SDFR it was at most 0.25; in that of LKWL, at most 0.25.

For the variant VDRT, the enrichment ratio is at most 0.25. As to AWRL, the enrichment ratio is at most 0.25.

In the case of VEDK, the enrichment ratio is at most 0.25.

Regarding MPYI, the enrichment ratio is at most 0.25. On to KVNI, for which the enrichment ratio was at most 0.25. As for HSYP, the enrichment ratio is at most 0.25. VCGC: the enrichment ratio is at most 0.25. In the case of TRRI, the enrichment ratio was found to be 0.557. In the case of GWVP it was at most 0.25. For GPTL, the enrichment ratio is at most 0.25.

For the variant RQST, the enrichment ratio was at most 0.25.

On to WMTH, for which the enrichment ratio is at most 0.25. In the case of SLKW it was at most 0.25; in that of HEIG, at most 0.25; in that of NDSF, at most 0.25. In the case of GLTH it was at most 0.25; in that of LLTC, at most 0.25; in that of GNTD, at most 0.25.

In the case of SFFR, the enrichment ratio is at most 0.25. As for ENMH, the enrichment ratio is at most 0.25. In the case of PRTF it was at most 0.25; in that of IHRM, at most 0.25. In the case of PEAR it was at most 0.25; in that of WHIG, at most 0.25; in that of KSKN, at most 0.25. In the case of DRFN it was at most 0.25.

In the case of PTGP, the enrichment ratio is at most 0.25.

Source of the values: a collection of fitness landscapes (doi:10.1126/science.1257360).
